Laboratory results from article PMC12136788.
This is one part of the list.

B1: ENSG00000198589:be:win_3301|CDS|ENSG00000198589|bound_else_gene|NA|bound_elsewhere_windowed (ssRNA)
RNA: GGGAGUUCUACAGUCCGACGAUCAUAGUAGAGGAAGAGGAAGAUGAUGAUUAUGUGGAACUGAAAGUAGAAGGCAGUCCUACUGAGGAAGCUAAUCUACCCACAGAGCUCCAAGAUAACAGUUUGUCUCCAGCUGCAUCUGAACAACAGAGGAUUGAGCAUCA
B2: chr6:132588675:132589686:-|CDS|ENSG00000135569|control|control|control (ssRNA)
RNA: GGGAGUUCUACAGUCCGACGAUCUGCCAAGACCCUGGGCAUUGCUGUGGGCAUAUACCUCUUGUGCUGGCUGCCCUUCACCAUAGACACGAUGGUCGACAGCCUCCUUCACUUUAUCACACCCCCACUGGUCUUUGACAUCUUCAACAGAGGAUUGAGCAUCA
B3: chr6:136278143:136278257:-|CDS|ENSG00000029363|unk|total|mutant (ssRNA)
RNA: GGGAGUUCUACAGUCCGACGAUCACAUCCGGUGAUAUUUGGCCUGGCCUUUCAGCUUAUGAUAACCGUCCCCGAUCACCCCACCGUCCUUCACCUAUUGCUACACCACCCCGUCAGAGUUCAUCUUGCUCUGAUGCUCCCAUGCAACAGAGGAUUGAGCAUCA
B4: chr5:38481646:38481747:-|CDS|ENSG00000113594|unk|FALSE|unique (ssRNA)
RNA: GGGAGUUCUACAGUCCGACGAUCCAGACCUCAGGCCAAUGUAAAUACAUGGAAUUUAGUGUCUCCAGACUCUCCUAGAUCCAUAGACAGCAACAGUGAGAUUGUCUCAUUUGGAAGUCCAUGCUCCAUUAAUUCCCGACAAUUCAACAGAGGAUUGAGCAUCA
B5: ENSG00000009954:stop:overlap|stop_codon|ENSG00000009954|stop_codon|NA|stop_codon (ssRNA)
RNA: GGGAGUUCUACAGUCCGACGAUCAUGAAGGGGACAGUGAGCCAGAGGCCGUUGGACAGUCCAGGGGACGAAGACAGAAGAAGUAGAGAGGCAGGGCCGUGGUGACAGUAUCAGUGAGUGCCAUACAGAAUUGUGUAUUCACCACAACAGAGGAUUGAGCAUCA
B6: chr17:18931026:18931127:+|3pUTR|ENSG00000141127|msi1|FALSE|unique (ssRNA)
RNA: GGGAGUUCUACAGUCCGACGAUCGAUACCUGCAAUUGAAAAGCCGAAAAGAUUAUACUGUCAAGUCCAGUAAAUGACAUUUUUAGAGAUGCUUUUGUAGACAAGCAUAUGGAAUAUGUGAUUGUAUUUAUUUUCUGCAACUAACAACAGAGGAUUGAGCAUCA
B7: chr1:108700024:108700125:+|3pUTR|ENSG00000134186|msi1|total|mutant (ssRNA)
RNA: GGGAGUUCUACAGUCCGACGAUCCACAUUGAAUCCUAUAAAUGAUUAAAUCUGCUUUUUUCCCCCACGUUGAGAUUGUGCAGCCGUUCGCACUCCUCAAGCUCUCCCUGCCGGCUGCAUUUUCAUUUCCUCUUUCGUGCCGGGCAACAGAGGAUUGAGCAUCA
B8: ENSG00000198589:be:win_7301|CDS|ENSG00000198589|bound_else_gene|NA|bound_elsewhere_windowed (ssRNA)
RNA: GGGAGUUCUACAGUCCGACGAUCAUUACUUGACCUAUGAAGGAGCUGUCAAUCUGAAUUCAAUAACUGAUCCUGUGUUGAGAGAGGCUGUUGAAGCUCAAAUCCGAAGUUUUGGACAGACUCCUUCUCAACUACUCAUAGAGCCAACAGAGGAUUGAGCAUCA
B9: chr10:88913158:88913259:+|CDS|ENSG00000138134|unk|FALSE|unique (ssRNA)
RNA: GGGAGUUCUACAGUCCGACGAUCGCAUCAGAGAUUGAUAGAGGCAGAAAGGAAGCGGAUUGCUCAGAUGCGCCAGCAGCAGCUAGAAUCGGAGCAGUUUCUGUUUUUCGAAGAUCAACUCAAGAAGCAAGAGUUAGCCCGAGGCAACAGAGGAUUGAGCAUCA
B10: ENSG00000184117:stop:overlap|stop_codon|ENSG00000184117|stop_codon|NA|stop_codon (ssRNA)
RNA: GGGAGUUCUACAGUCCGACGAUCUGGGCAACUGGAACACGUGGUAUGGGGAGCAGGACCAGGCAGGUCAUUCCUGGUUUUGGUAGAUUUCUAUCCAUACAGUACUUUUGCCAUUUCCUUUGGGAAAAAGACCUUUAAACCAUACAACAGAGGAUUGAGCAUCA
B11: chr2:112781603:112781826:-|CDS|ENSG00000115008|control|control|control (ssRNA)
RNA: GGGAGUUCUACAGUCCGACGAUCGAGUAUCUCUGAAACCUCUAAAACAUCCAAGCUUACCUUCAAGGAGAGCAUGGUGGUAGUAGCAACCAACGGGAAGGUUCUGAAGAAGAGACGGUUGAGUUUAAGCCAAUCCAUCACUGACAACAGAGGAUUGAGCAUCA
B12: chr1:153933785:153933886:-|CDS|ENSG00000198837|msi1|FALSE|unique (ssRNA)
RNA: GGGAGUUCUACAGUCCGACGAUCGGGAAGUUGGUGCAGAGGCUGGGGUCCAUCUUCCCUCAUUCUUUUCUGUGCUGCAGUGAUAGAGGCCUUGGGGGUCCUGGAACCCCGGGGAUCACCUGUGCCCUGGCACGAUGGAAGUCUCAACAGAGGAUUGAGCAUCA
B13: chr17:4948375:4948459:-|5pUTR_CDS|ENSG00000108518|msi1_unk|FALSE|overlapping (ssRNA)
RNA: GGGAGUUCUACAGUCCGACGAUCAGCCGAGGCAGCUCGAGCCCAGUCCGCGGCCCCAGCAGCAGCGCCGAGAGCAGCCCCAGUAGCAGCGCCAUGGCCGGGUGGAACGCCUACAUCGACAACCUCAUGGCGGACGGGACCUGUCAACAGAGGAUUGAGCAUCA
B14: ENSG00000177108:stop:overlap|stop_codon|ENSG00000177108|stop_codon|NA|stop_codon (ssRNA)
RNA: GGGAGUUCUACAGUCCGACGAUCUGGGCCUGCUGGUCCCCAUGUUCAAUGUCGGAAGUGAGAGCUCCAAGCAGCAGGAUAAGUAGUAGACACUCCCGUCAUUUAUCUCUCUGUCUCUGUCUUGACUCCUCCUGAGCAUAAAACCAACAGAGGAUUGAGCAUCA

What follows are binders tested against T1, UNK ZnF1-6 (called full-length) (human, UniProt Q9C0B0 30-357) (assay: nsRBNS (natural sequence RNA bind-n-seq); RBNS binding buffer (assumed for nsRBNS): 25 mM Tris pH 7.5, 150 mM KCl, 3 mM MgCl2, 0.01% Triton X-100, 500 ug/ml BSA, 20 U/ml SUPERase-In, 4 C; UNK is unkempt and MSI1 is Musashi-1; names of the RNAs are library labels; protein concentration not given here; high values mean tight binding).
T1 sequence: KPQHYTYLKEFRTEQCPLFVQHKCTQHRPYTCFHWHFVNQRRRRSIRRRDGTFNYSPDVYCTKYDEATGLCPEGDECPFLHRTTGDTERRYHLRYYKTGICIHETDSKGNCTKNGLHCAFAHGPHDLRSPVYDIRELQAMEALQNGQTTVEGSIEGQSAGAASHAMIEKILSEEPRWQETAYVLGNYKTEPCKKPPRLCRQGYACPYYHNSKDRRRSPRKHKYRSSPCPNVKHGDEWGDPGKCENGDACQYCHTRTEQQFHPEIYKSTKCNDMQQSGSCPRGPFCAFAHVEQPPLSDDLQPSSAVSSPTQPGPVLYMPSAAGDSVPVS
Work on B1 yielded a binding signal of 0.786 enrichment R. Work on B2 yielded a binding signal of 0.967 enrichment R. B3 was tested, and the binding signal was 0.726 enrichment R. B4 gave a binding signal of 0.536 enrichment R. B5 gave a binding signal of 0.396 enrichment R. Work on B6 yielded a binding signal of 0.544 enrichment R. B7 showed a binding signal of 0.792 enrichment R. For B8, the binding signal was 0.397 enrichment R. In the case of B9, the binding signal is reported as 0.534 enrichment R. With B10 the binding signal was 0.898 enrichment R. For B11, the binding signal was 0.516 enrichment R. B12 gave a binding signal of 1.28 enrichment R. In the case of B13, the binding signal is reported as 1.01 enrichment R. B14 gave a binding signal of 0.671 enrichment R.
